# Where “and” joins values, the source holds several entries; their conditions need not be identical. Equal values may be shown once. Inconclusive means that the source gave no clear call. Such entries were picked first, then a sample of the others. For some assays here: Potencies beside an inconclusive call are fits to weak or partial responses and may not hold up. A structure can be active in one record and inactive in another. Calls of active or inactive are those of the source. Unless noted, calls follow the shape of the dose curve; as a rule, active = well fitted curve in the direction sought with a large enough effect in the repeat runs; inconclusive = weak or mixed curves; inactive = no such curve, though single readings can be large; an effect the other way counts as inactive or inconclusive.
# What was measured:
# [1] = qHTS assay to identify aromatase inhibitors - cell viability counter screen (AID 743084); details: MCF-7 aro ERE viability, CellTiter-Fluor, 24 h; activity change, negative = cytotoxicity: at 70.3 µM (top of the series);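 also: cells stimulated with testosterone during compound exposure; potency is read from the fitted curve at half-maximal effect; nearly all actives have a fitted effect of over 55% in size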
# [2] = qHTS assay to identify small molecule that activate the aryl hydrocarbon receptor (AhR) signaling pathway - cell viability counter screen (AID 743086); also: nearly all actives have a fitted effect of over 45% in size; also: potency is read from the fitted curve at half-maximal effect
# Summary of the method: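 HepG2-AhR-luc (HG2L7.5c1) cells, 4000/well, treated 24 h at 37 C with compound; viability measured as CellTiter-Fluor fluorescence after 30 min in the same wells as the luciferase read.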
# [3] = qHTS assay for small molecule agonists of the antioxidant response element (ARE) signaling pathway (AID 743202; active = well fitted activation curve with a large enough effect in the signal ratio in the repeat runs, not every such curve was filed as active; inconclusive = weak or mixed curves, or effect the other way; inactive = no such curve, though single readings can be large or run the other way; the % refers to the signal ratio; also: % is scaled to controls: 0 for no effect and ±100 for the full control effect); details: HepG2 ARE-bla reporter, beta-lactamase FRET, 16 h; activation: at 73.3 µM (top of the series) unless noted
# Summary of the method: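 ARE-bla HepG2 cells (beta-lactamase reporter under the antioxidant response element), plated 5 hours, then exposed to compounds 16 hours at 37 C. LiveBLAzer B/G FRET substrate added for 2 hours at room temperature; fluorescence intensity read.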
# [4] = qHTS assay for small molecule agonists of the antioxidant response element (ARE) signaling pathway - cell viability counter screen (AID 743203; calls by dose curve; also: potency is read from the fitted curve at half-maximal effect; nearly all actives have a fitted effect of over 55% in size); details: ARE-bla HepG2 viability, CellTiter-Glo luminescence, 16 h; viability change, negative = cytotoxic: at 73.3 µM (top of the series)
# Summary of the method: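 Compounds in DMSO were pinned onto ARE-bla HepG2 cells plated 5 hrs earlier at 2,000 cells/well. Sixteen hours later at 37C/5% CO2, CellTiter-Glo was added and luminescence measured after 30 min at room temperature.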
# [5] = qHTS assay for small molecule activators of the heat shock response signaling pathway (AID 743210; active = well fitted activation curve with a large enough effect in the signal ratio in the repeat runs, with a control signal flat, not every such curve was filed as active; inconclusive = weak or mixed curves; the % refers to the signal ratio; also: potency is read from the fitted curve at half-maximal effect); details: HeLa HSE-bla reporter, beta-lactamase ratio, 5 h; activation: at 62.6 µM (top of the series)
# Summary of the method: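 HSE-bla HeLa cells (beta-lactamase reporter under heat shock response elements), plated overnight, then exposed to compounds 5 h at 37 C; LiveBLAzer B/G FRET substrate added, 2.5 h at room temperature, fluorescence intensity read.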
# [6] = qHTS assay to identify small molecule agonists of the peroxisome proliferator-activated receptor delta (PPARd) signaling pathway - cell viability counter screen (AID 743211); details: PPARd-bla HEK293H viability, CellTiter-Glo luminescence, 17 h; activity change, negative = cytotoxicity: at 62.6 µM (top of the series); also: potency is read from the fitted curve at half-maximal effect; nearly all actives have a fitted effect of over 55% in size
# Summary of the method: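 PPARd-bla HEK293H cells (UAS-beta-lactamase reporter) were treated with compounds for 17 h at 37 C. Viability was then read in the same wells by CellTiter-Glo luminescence after 30 min at room temperature.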
# [7] = molecular target: Peroxisome proliferator-activated receptor delta (Homo sapiens) (UniProt Q03181); test: qHTS assay to identify small molecule antagonists of the peroxisome proliferator-activated receptor delta (PPARd) signaling pathway (AID 743215; active = well fitted inhibition curve with a large enough effect in the signal ratio in the repeat runs, not every such curve was filed as active; inconclusive = weak or mixed curves, or effect the other way; inactive = no such curve, though single readings can be large or run the other way; the % refers to the signal ratio;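 also: cells stimulated with agonist L165041 at 300 nM final during compound exposure; potency is read from the fitted curve at half-maximal effect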); details: HEK293H PPARd-UAS-bla, beta-lactamase FRET ratio, antagonist, 17 h; ratio activity, negative = inhibition: at 62 µM (top of the series) unless noted
# Summary of the method: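 With L165041 present at 300 nM final, compounds were incubated 17 h at 37 C on PPARd UAS-bla HEK293H cells. A FRET-based beta-lactamase substrate was then applied for 2 h at room temperature and fluorescence intensity recorded.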
# [8] = qHTS assay to identify small molecule agonists of the farnesoid-X-receptor (FXR) signaling pathway - cell viability counter screen (AID 743218); details: FXR-bla HEK293T viability, CellTiter-Glo luminescence, 16 h; viability change, negative = cytotoxic: at 62.6 µM (top of the series) unless noted; also: nearly all actives have a fitted effect of over 45% in size; also: potency is read from the fitted curve at half-maximal effect
# Summary of the method: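 After 16 h at 37 C with test compounds, FXR-bla HEK 293T cells were given LiveBLAzer B/G substrate for 2 h at RT and then CellTiter-Glo; luminescence was taken after 30 min.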
# [9] = molecular target: Peroxisome proliferator-activated receptor gamma (Homo sapiens) (UniProt P37231); test: qHTS assay to identify small molecule agonists of the peroxisome proliferator-activated receptor gamma (PPARg) signaling pathway (AID 743094; active = well fitted activation curve with a large enough effect in the signal ratio in the repeat runs, not every such curve was filed as active; inconclusive = weak or mixed curves, or effect the other way; inactive = no such curve, though single readings can be large or run the other way; the % refers to the signal ratio; also: % is scaled to controls: 0 for no effect and ±100 for the full control effect); details: HEK293H PPARg-UAS-bla, beta-lactamase FRET ratio, 17 h; activation: at 57 µM (top of the series) unless noted
# Summary of the method: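 Following 5 h plating at 37C, PPARg-bla HEK293H cells receive compound or DMSO for 17 h; fluorescence intensity is recorded after LiveBLAzer B/G loading for 1 h at room temperature.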
# [10] = qHTS assay for small molecule activators of the heat shock response signaling pathway - cell viability counter screen (AID 743209); details: HSE-bla HeLa viability, CellTiter-Glo luminescence, 5 h; activity change, negative = cytotoxicity: at 62.6 µM (top of the series); also: potency is read from the fitted curve at half-maximal effect; nearly all actives have a fitted effect of over 50% in size
# Summary of the method: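 Counter screen for cytotoxicity in HeLa HSE-bla reporter cells. Treatment was 5 h at 37 C; viability was detected by luminescent ATP assay (CellTiter-Glo) in the same wells as the beta-lactamase read.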
# [11] = molecular target: Peroxisome proliferator-activated receptor delta (Homo sapiens) (UniProt Q03181); test: qHTS assay to identify small molecule agonists of the peroxisome proliferator-activated receptor delta (PPARd) signaling pathway (AID 743212; calls by dose curve; also: % is scaled to controls: 0 for no effect and ±100 for the full control effect); details: HEK293H PPARd-UAS-bla, beta-lactamase FRET ratio, 17 h; activation: at 62.6 µM (top of the series) unless noted
# Summary of the method: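 GeneBLAzer UAS-bla HEK293H cells carrying a PPARδ construct were exposed to compounds at 37 °C. Beta-lactamase activity was read by FRET fluorescence after 2 h at room temperature with LiveBLAzer B/G substrate.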
# [12] = molecular target: Bile acid receptor (Homo sapiens) (UniProt Q96RI1); test: qHTS assay to identify small molecule antagonists of the farnesoid-X-receptor (FXR) signaling pathway (AID 743217; active = well fitted inhibition curve with a large enough effect in the signal ratio in the repeat runs, not every such curve was filed as active; inconclusive = weak or mixed curves, or effect the other way; inactive = no such curve, though single readings can be large or run the other way; the % refers to the signal ratio; also: % is scaled to controls: 0 for no effect and ±100 for the full control effect); details: HEK293T FXR-UAS-bla, beta-lactamase ratio, CDCA-stimulated, 16 h; activity change, negative = inhibition: at 62.6 µM (top of the series) unless noted
# Summary of the method: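 In this cell-based antagonist screen, inhibition of CDCA-driven (50 uM final) UAS-beta-lactamase expression in HEK 293T cells was measured by FRET fluorescence following 16 h compound exposure at 37 °C.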
# [13] = molecular target: Bile acid receptor (Homo sapiens) (UniProt Q96RI1); test: qHTS assay to identify small molecule agonists of the farnesoid-X-receptor (FXR) signaling pathway (AID 743220; active = well fitted activation curve with a large enough effect in the signal ratio in the repeat runs, not every such curve was filed as active; inconclusive = weak or mixed curves, or effect the other way; the % refers to the signal ratio; also: potency is read from the fitted curve at half-maximal effect); details: HEK293T FXR-UAS-bla, beta-lactamase FRET ratio, 16 h; activation: at 62.6 µM (top of the series) unless noted
# Summary of the method: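 Beta-lactamase reporter under UAS control in GeneBLAzer FXR HEK 293T cells (5000/well) measured with LiveBLAzer FRET substrate after 2 h at room temperature. Compound exposure lasted 16 h at 37C.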
# [14] = molecular target: Vitamin D3 receptor (Homo sapiens) (UniProt P11473); test: qHTS assay to identify small molecule agonists of the vitamin D receptor (VDR) signaling pathway (AID 743222; calls by dose curve; also: potency is read from the fitted curve at half-maximal effect); details: HEK293T VDR-UAS-bla, beta-lactamase FRET ratio, 16 h; activation: at 63.5 µM (top of the series) unless noted
# Summary of the method: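 VDR-bla cells were seeded, left 4 h, treated with compounds in DMSO for 16 h, incubated 2 h at RT with B/G FRET substrate, and read for fluorescence.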
# [15] = molecular target: Vitamin D3 receptor (Homo sapiens) (UniProt P11473); test: qHTS assay to identify small molecule antagonists of the vitamin D receptor (VDR) signaling pathway (AID 743223; active = well fitted inhibition curve with a large enough effect in the signal ratio in the repeat runs, not every such curve was filed as active; inconclusive = weak or mixed curves, or effect the other way; inactive = no such curve, though single readings can be large or run the other way; the % refers to the signal ratio; also: % is scaled to controls: 0 for no effect and ±100 for the full control effect); details: VDR-UAS-bla HEK293T, beta-lactamase FRET ratio, 16 h; activity change, negative = inhibition: at 61 µM (top of the series) unless noted
# Summary of the method: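 VDR-bla cells were plated, incubated 4 h at 37C, then given compound and 1alpha,25-dihydroxyvitamin D3 (3 nM final). After 16 h at 37C, LiveBLAzer B/G FRET substrate was added for 2 h at room temperature and fluorescence read.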
# Tags tell the direction and shape of the fitted curve or compound fluorescence and quenching.
# Sequence of UniProt Q03181 (Q03181 whole entry, looked up): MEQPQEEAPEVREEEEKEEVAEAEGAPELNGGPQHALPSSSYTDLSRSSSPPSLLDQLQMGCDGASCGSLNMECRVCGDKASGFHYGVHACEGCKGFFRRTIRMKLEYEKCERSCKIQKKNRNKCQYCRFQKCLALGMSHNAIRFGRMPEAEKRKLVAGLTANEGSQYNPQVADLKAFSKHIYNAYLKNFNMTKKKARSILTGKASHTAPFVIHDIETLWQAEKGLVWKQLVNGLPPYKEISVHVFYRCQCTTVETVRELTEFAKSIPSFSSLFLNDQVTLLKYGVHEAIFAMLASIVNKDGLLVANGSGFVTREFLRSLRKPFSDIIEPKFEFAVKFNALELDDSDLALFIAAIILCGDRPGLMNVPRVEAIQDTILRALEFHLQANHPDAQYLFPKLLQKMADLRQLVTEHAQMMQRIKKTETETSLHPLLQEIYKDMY
# Sequence of UniProt P37231 (P37231 whole entry, looked up): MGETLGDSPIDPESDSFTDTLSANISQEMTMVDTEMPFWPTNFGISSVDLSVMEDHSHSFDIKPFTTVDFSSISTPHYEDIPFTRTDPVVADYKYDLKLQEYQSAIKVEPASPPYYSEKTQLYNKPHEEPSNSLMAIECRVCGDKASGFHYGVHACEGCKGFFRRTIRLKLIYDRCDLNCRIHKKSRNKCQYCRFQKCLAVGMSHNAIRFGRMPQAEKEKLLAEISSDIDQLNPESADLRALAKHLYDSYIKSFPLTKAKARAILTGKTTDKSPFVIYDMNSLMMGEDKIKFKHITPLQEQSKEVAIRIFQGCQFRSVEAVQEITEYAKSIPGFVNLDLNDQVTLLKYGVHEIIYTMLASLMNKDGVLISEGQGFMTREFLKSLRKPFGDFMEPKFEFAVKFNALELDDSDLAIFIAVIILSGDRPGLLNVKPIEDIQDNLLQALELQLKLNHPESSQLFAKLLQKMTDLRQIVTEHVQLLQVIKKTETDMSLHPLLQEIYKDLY
# Sequence of UniProt P11473 (P11473 whole entry, looked up): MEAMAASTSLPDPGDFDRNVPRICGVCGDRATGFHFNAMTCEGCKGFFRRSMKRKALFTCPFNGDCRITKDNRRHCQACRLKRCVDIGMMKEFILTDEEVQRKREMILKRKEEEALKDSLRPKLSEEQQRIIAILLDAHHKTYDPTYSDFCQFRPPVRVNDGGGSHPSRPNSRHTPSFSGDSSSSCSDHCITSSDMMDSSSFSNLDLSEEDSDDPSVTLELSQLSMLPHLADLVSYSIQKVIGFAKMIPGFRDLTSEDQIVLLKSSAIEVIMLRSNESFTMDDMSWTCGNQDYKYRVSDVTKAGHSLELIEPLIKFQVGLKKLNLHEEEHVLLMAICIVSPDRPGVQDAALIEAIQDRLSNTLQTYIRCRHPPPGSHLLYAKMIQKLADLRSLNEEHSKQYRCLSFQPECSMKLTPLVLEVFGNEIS
# Sequence of UniProt Q96RI1 (Q96RI1 whole entry, looked up): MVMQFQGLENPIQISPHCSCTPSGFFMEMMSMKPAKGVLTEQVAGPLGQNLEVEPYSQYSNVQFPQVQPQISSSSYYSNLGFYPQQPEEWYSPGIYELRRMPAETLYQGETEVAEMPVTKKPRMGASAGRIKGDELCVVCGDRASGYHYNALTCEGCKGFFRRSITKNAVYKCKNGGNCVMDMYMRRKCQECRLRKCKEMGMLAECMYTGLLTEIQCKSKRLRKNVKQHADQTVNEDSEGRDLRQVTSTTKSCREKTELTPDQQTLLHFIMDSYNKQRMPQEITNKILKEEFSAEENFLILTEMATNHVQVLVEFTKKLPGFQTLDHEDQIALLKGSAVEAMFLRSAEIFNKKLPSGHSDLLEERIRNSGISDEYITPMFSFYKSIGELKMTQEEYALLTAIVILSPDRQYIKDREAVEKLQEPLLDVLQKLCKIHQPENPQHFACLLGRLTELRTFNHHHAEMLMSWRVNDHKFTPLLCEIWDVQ
Structure (SMILES),Potency [1],Potency [2],activation [3],Potency [4],Potency [5],Potency [6],Potency [7],Potency [8],"viability change, negative = cytotoxic [8]",activation [9],Potency [10],activation [11],"activity change, negative = inhibition [12]",Potency [13],Potency [14],"activity change, negative = inhibition [15]"
CC(COc1ccccc1)N(CCCl)Cc1ccccc1 (stereo not given),"inconclusive: 69.3 µM [cytotoxic, partial curve, poor fit] and inconclusive: 54.5 µM [cytotoxic, partial curve, poor fit]",inactive,inconclusive: 24.6%,"inconclusive: 61.8 µM [cytotoxic, single point] and active: 61.1 µM",inconclusive: 52.4 µM [activator] and inconclusive: 27.5 µM [activator] and inconclusive: 26.6 µM [activator],"inconclusive: 61.7 µM [cytotoxic, single point]","inconclusive: 7.5 nM [fluorescent, full curve, poor fit]",active: 49 µM,inconclusive: -34.6% [cytotoxic] [at 81.1 µM],,,,,,,
Oc1c(Cl)cc(Cl)cc1Sc1cc(Cl)cc(Cl)c1O,"inconclusive: 24.3 µM [cytotoxic, partial curve, poor fit] [middle of 4 runs]","inconclusive: 43.3 µM [falling, partial curve, poor fit]",inconclusive: 2.72% [at 94.8 µM],,,,active: 21.9 µM and inconclusive: 55.9 µM and active: 17.4 µM,,,inconclusive: -7.4% and inconclusive: 0.541%,"inconclusive: 55.9 µM [cytotoxic, partial curve]",inconclusive: 1.46%,inconclusive: -36.3%,inconclusive: 61.8 µM [single point],inconclusive: 21.9 µM [fluorescent],inconclusive: 2.3%
